Test results published in PubChem BioAssay AID588579 (National Center for Advancing Translational Sciences (NCATS), 2011).
The whole screen tested about 400,000 compounds, of which about 2,200 (0.55%) were called active. The shares of active, inactive and inconclusive entries below differ from those in the screen. Calls come from the whole dose curve; as a rule, active = well fitted inhibition curve with a large enough effect; inconclusive = small, poorly fitted or top-dose-only effect, or another doubt; inactive = no such curve, though single readings can be large or run the other way. Where the call is inconclusive, the potency comes from a doubtful curve fit.

Target: DNA polymerase kappa (Homo sapiens) (UniProt Q9UBT6)
Chain of UniProt Q9UBT6 (Q9UBT6 whole entry, looked up): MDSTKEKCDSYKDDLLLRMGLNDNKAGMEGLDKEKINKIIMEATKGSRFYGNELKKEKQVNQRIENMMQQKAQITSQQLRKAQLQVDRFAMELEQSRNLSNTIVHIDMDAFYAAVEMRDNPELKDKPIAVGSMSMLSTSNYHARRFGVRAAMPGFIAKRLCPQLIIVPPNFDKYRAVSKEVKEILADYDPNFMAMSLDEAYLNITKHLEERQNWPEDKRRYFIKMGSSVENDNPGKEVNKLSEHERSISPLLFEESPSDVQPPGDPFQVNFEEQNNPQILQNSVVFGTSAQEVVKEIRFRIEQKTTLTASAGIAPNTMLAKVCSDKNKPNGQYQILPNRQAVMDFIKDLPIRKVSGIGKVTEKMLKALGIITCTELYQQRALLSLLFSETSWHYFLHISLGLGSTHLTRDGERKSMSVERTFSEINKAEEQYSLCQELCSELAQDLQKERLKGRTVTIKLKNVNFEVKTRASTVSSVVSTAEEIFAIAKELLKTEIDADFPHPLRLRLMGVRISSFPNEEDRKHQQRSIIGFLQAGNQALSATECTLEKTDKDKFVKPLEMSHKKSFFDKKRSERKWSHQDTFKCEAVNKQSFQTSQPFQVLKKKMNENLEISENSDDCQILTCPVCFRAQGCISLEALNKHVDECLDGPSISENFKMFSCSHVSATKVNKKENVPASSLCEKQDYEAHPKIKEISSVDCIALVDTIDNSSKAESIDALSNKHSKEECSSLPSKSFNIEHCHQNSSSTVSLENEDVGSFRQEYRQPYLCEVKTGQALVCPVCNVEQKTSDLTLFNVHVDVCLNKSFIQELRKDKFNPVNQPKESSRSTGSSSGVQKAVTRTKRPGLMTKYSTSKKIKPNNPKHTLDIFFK
Test: qHTS for Inhibitors of Polymerase Kappa
Conditions: purified Pol kappa, fluorescent DNA synthesis assay, 10 min; series mostly up to 107 µM
Outline: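 Activity was followed as the change in fluorescence between reads at 0 and 10 min after starting the reaction with 50 nM substrate. Beforehand, 10 nM polymerase had been preincubated with compound for 15 min at room temperature.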
Potency is the fitted concentration of half-maximal effect; tags give direction and shape of the fitted curve.

Question: With `CCN(c1cc(C)cc(C)c1)S(=O)(=O)c1nnc(NC(=O)c2ccco2)s1` as the molecule, how does the Potency read?
Answer: Its Potency is “inactive”.

Question: With `Cc1cc(C)n(C(CC(=O)N2CCc3ccccc3C2)C(=O)O)n1` (stereo not given) as the molecule, how does the Potency read?
Answer: Its Potency is inconclusive: 100 µM [inhibitor, single point].

Question: With `O=C(NNC(=O)c1cc2cc3ccccc3nc2s1)c1cccc(C(F)(F)F)c1` as the molecule, how does the Potency read?
Answer: The Potency was inconclusive: 89.1 µM [inhibitor, single point].

Question: `Cc1nn(-c2ccccc2)c(Cl)c1/C=N/NC(=O)OC(C)(C)C` was tested. Which Potency did it give?
Answer: Its Potency is inconclusive: 89.1 µM [inhibitor, single point].

Question: With `Cc1ccc(C)c(N2CCN(S(=O)(=O)c3csc(C(N)=O)c3)CC2)c1` as the molecule, how does the Potency read?
Answer: Its Potency is inconclusive: 89.1 µM [inhibitor, single point].

Question: Which Potency does the source give for `NC(Cc1cc(I)c(Oc2cc(I)c(O)c(I)c2)c(I)c1)C(=O)O` (stereo not given) here?
Answer: The Potency was inconclusive: 35.5 µM [inhibitor, single point].

Question: `Cc1cc(Cl)ccc1Oc1ccc(C(N)=O)cc1[N+](=O)[O-]` was tested. Which Potency did it give?
Answer: Its Potency is “inactive”.

Question: How did the Potency turn out when `Cc1ccccc1NC(=O)CSc1nnc(-c2ccco2)c(-c2ccco2)n1` was run?
Answer: Its Potency is active: 31.6 µM.

Question: With `Cc1ccc(NC(=O)Cn2c(=O)ccc3cc(S(=O)(=O)N4CCCC4)ccc32)cc1N(C)C` as the molecule, how does the Potency read?
Answer: Its Potency is “inactive”.

Question: How did the Potency turn out when `CC12CN3CC(C)(CN(C1)C3c1ccc([N+](=O)[O-])o1)C2=O` (stereo not given) was run?
Answer: The Potency was “inactive”.

Question: How did the Potency turn out when `COc1cc(NC(=S)NCCC(c2ccccc2)c2ccccc2)cc(OC)c1` was run?
Answer: Its Potency is inconclusive: 89.1 µM [inhibitor, single point].

Question: How did the Potency turn out when `O=c1[nH]c2cc3c(cc2cc1CN(CCCO)C(=S)NCc1ccco1)OCO3` was run?
Answer: The Potency was inconclusive: 79.4 µM [inhibitor, partial curve, poor fit].

Question: Which Potency does the source give for `Cc1cc(-c2ccc(S(=O)(=O)Nc3cccc(Cl)c3C)cc2)on1` here?
Answer: The Potency was “inactive”.

Question: With `CCN(CC(=O)NC(C)(C)C)Cc1cc(=O)n2c(-c3ccccc3)csc2n1` as the molecule, how does the Potency read?
Answer: Its Potency is “inactive”.

Question: With `CCSc1nnc(NC(=O)CSc2c(Cl)cccc2Cl)s1` as the molecule, how does the Potency read?
Answer: The Potency was inconclusive: 100 µM [inhibitor, single point].

Question: How did the Potency turn out when `COC(=O)c1cc2sc(C)cc2n1CC(=O)Nc1ccc(C)cc1Cl` was run?
Answer: The Potency was “inactive”.

Question: `N#Cc1nc(-c2ccc(OCc3ccc(Cl)cc3)cc2)oc1N1CCCCC1` was tested. Which Potency did it give?
Answer: Its Potency is inconclusive: 89.1 µM [inhibitor, single point].

Question: With `CCCC(=O)Nc1nc2c(ncn2[C@@H]2O[C@H]3COP(=O)(O)O[C@@H]3[C@@H]2OC(=O)CCC)c(=O)[nH]1` as the molecule, how does the Potency read?
Answer: Its Potency is “inactive”.

Question: Which Potency does the source give for `O=C1NC(c2ccccc2)=N/C1=C/c1ccco1` here?
Answer: The Potency was inconclusive: 89.1 µM [inhibitor, partial curve, poor fit].

Question: With `Cc1cccc2[nH]cc(/C=C3/C=Nc4ccccc43)c12` as the molecule, how does the Potency read?
Answer: Its Potency is “inactive”.
